Patent US9023789B2, “Amylin analogs and pharmaceutical compositions thereof” (Novo Nordisk A/S, priority 2012, dated 2015)
At least one read-out could not be matched to a standard name with certainty. Numbered stars: 1 amine (or outer) side, 2 acyl side, 3 side chain; on linkers, the order of the positions; unused ones are H or OH. Bridge positions count the residues as written; N and C are the ends. Side chains are listed from the residue outwards. Peptide text beside a SMILES is read from it. * marks the point of attachment. C20 diacid = O=C(O)CCCCCCCCCCCCCCCCCCC(=O)*; γGlu = O=C(O)[C@H](CCC(=O)[*:2])N[*:1]; AEEA = NCCOCCOCC(=O)O

Experiment: ASSAY (III) ThT fibrillation assay for physical stability
Type: physicochemical
Outline: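 Formulations with 1 μM ThT, pH adjusted as required, incubated at 37 °C with 960 rpm orbital shaking; fluorescence (ex 444/em 485 nm) read every 20 min. Fibrillation reported as mean ThT fluorescence ± SD of 4–8 replicates at time points; polypeptide concentration measured by reverse-phase HPLC before and after, post-centrifugation.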

`CC[C@H](C)[C@H](NC(=O)[C@H](C)NC(=O)CNC(=O)[C@H](Cc1ccccc1)NC(=O)[C@H](CC(N)=O)NC(=O)[C@@H]1CCCN1C(=O)[C@H](CO)NC(=O)[C@H](CO)NC(=O)[C@H](Cc1c[nH]cn1)NC(=O)[C@H](CCCNC(=N)N)NC(=O)[C@H](CC(C)C)NC(=O)[C@H](Cc1ccccc1)NC(=O)[C@H](CC(N)=O)NC(=O)[C@H](C)NC(=O)[C@H](CC(C)C)NC(=O)[C@H](CCCNC(=N)N)NC(=O)[C@H](CCC(N)=O)NC(=O)[C@@H](NC(=O)[C@H](C)NC(=O)[C@@H]1CSSC[C@H](NC(=O)[C@H](CCCCN)NC(=O)COCCOCCNC(=O)COCCOCCNC(=O)CC[C@H](NC(=O)CCCCCCCCCCCCCCCCCCC(=O)O)C(=O)O)C(=O)N[C@@H](CC(N)=O)C(=O)N[C@@H]([C@@H](C)O)C(=O)N[C@@H](C)C(=O)N[C@@H]([C@@H](C)O)C(=O)N1)[C@@H](C)O)C(=O)N1CCC[C@H]1C(=O)N[C@@H](CO)C(=O)N[C@@H](CO)C(=O)N[C@H](C(=O)N[C@@H](CC(N)=O)C(=O)N[C@H](C(=O)NCC(=O)N[C@@H](CO)C(=O)N[C@@H](CC(N)=O)C(=O)N[C@H](C(=O)N[C@@H](Cc1ccc(O)cc1)C(N)=O)[C@@H](C)O)C(C)C)[C@@H](C)O` [Example 24] and `CC[C@H](C)[C@H](NC(=O)[C@H](C)NC(=O)CNC(=O)[C@H](Cc1ccccc1)NC(=O)[C@H](CC(N)=O)NC(=O)[C@@H]1CCCN1C(=O)[C@H](CO)NC(=O)[C@H](CO)NC(=O)[C@H](Cc1c[nH]cn1)NC(=O)[C@H](CCCNC(=N)N)NC(=O)[C@H](CC(C)C)NC(=O)[C@H](Cc1ccccc1)NC(=O)[C@H](CC(N)=O)NC(=O)[C@H](C)NC(=O)[C@H](CC(C)C)NC(=O)[C@H](CCCNC(=N)N)NC(=O)[C@H](CCC(N)=O)NC(=O)[C@@H](NC(=O)[C@H](C)NC(=O)[C@@H]1CSSC[C@H](NC(=O)[C@@H](N)CCCCNC(=O)COCCOCCNC(=O)COCCOCCNC(=O)CC[C@H](NC(=O)CCCCCCCCCCCCCCCCCCC(=O)O)C(=O)O)C(=O)N[C@@H](CC(N)=O)C(=O)N[C@@H]([C@@H](C)O)C(=O)N[C@@H](C)C(=O)N[C@@H]([C@@H](C)O)C(=O)N1)[C@@H](C)O)C(=O)N1CCC[C@H]1C(=O)N[C@@H](CO)C(=O)N[C@@H](CO)C(=O)N[C@H](C(=O)N[C@@H](CC(N)=O)C(=O)N[C@H](C(=O)NCC(=O)N[C@@H](CO)C(=O)N[C@@H](CCC(=O)O)C(=O)N[C@H](C(=O)N[C@@H](Cc1ccc(O)cc1)C(N)=O)[C@@H](C)O)C(C)C)[C@@H](C)O` [Example 25] are the same in “ThT pH 4.0 recovery (%)” value: 0% for the first, 0% for the second.

Going from `CC[C@H](C)[C@H](NC(=O)[C@H](C)NC(=O)CNC(=O)[C@H](Cc1ccccc1)NC(=O)[C@H](CC(N)=O)NC(=O)[C@@H]1CCCN1C(=O)[C@H](CO)NC(=O)[C@H](CO)NC(=O)[C@H](Cc1c[nH]cn1)NC(=O)[C@H](CCCNC(=N)N)NC(=O)[C@H](CC(C)C)NC(=O)[C@H](Cc1ccccc1)NC(=O)[C@H](CC(N)=O)NC(=O)[C@H](C)NC(=O)[C@H](CC(C)C)NC(=O)[C@H](CCCNC(=N)N)NC(=O)[C@H](CCC(N)=O)NC(=O)[C@@H](NC(=O)[C@H](C)NC(=O)[C@@H]1CSSC[C@H](NC(=O)[C@@H](N)CCCCNC(=O)COCCOCCNC(=O)CC[C@H](NC(=O)CCCCCCCCCCCCCCCCCCC(=O)O)C(=O)O)C(=O)N[C@@H](CC(N)=O)C(=O)N[C@@H]([C@@H](C)O)C(=O)N[C@@H](C)C(=O)N[C@@H]([C@@H](C)O)C(=O)N1)[C@@H](C)O)C(=O)N1CCC[C@H]1C(=O)N[C@@H](CO)C(=O)N[C@@H](CO)C(=O)N[C@H](C(=O)N[C@@H](CC(N)=O)C(=O)N[C@H](C(=O)NCC(=O)N[C@@H](CO)C(=O)N[C@@H](CCC(=O)O)C(=O)N[C@H](C(=O)N[C@@H](Cc1ccc(O)cc1)C(N)=O)[C@@H](C)O)C(C)C)[C@@H](C)O` [Example 26] (H-K([AEEA-γGlu-C20 diacid])CNTATCATQRLANFLRHSSPNFGAIPSSTNVGSETY-NH2; disulfide 2-7; N-terminus assumed) to `CC[C@H](C)[C@H](NC(=O)[C@H](C)NC(=O)CNC(=O)[C@H](Cc1ccccc1)NC(=O)[C@H](CC(N)=O)NC(=O)[C@@H]1CCCN1C(=O)[C@H](CO)NC(=O)[C@H](CO)NC(=O)[C@H](Cc1c[nH]cn1)NC(=O)[C@H](CCCNC(=N)N)NC(=O)[C@H](CC(C)C)NC(=O)[C@H](Cc1ccccc1)NC(=O)[C@H](CC(N)=O)NC(=O)[C@H](C)NC(=O)[C@H](CC(C)C)NC(=O)[C@H](CCCNC(=N)N)NC(=O)[C@H](CCC(N)=O)NC(=O)[C@@H](NC(=O)[C@H](C)NC(=O)[C@@H]1CSSC[C@H](NC(=O)[C@@H](N)CCCCNC(=O)CC[C@H](NC(=O)CCCCCCCCCCCCCCCCCCC(=O)O)C(=O)O)C(=O)N[C@@H](CC(N)=O)C(=O)N[C@@H]([C@@H](C)O)C(=O)N[C@@H](C)C(=O)N[C@@H]([C@@H](C)O)C(=O)N1)[C@@H](C)O)C(=O)N1CCC[C@H]1C(=O)N[C@@H](CO)C(=O)N[C@@H](CO)C(=O)N[C@H](C(=O)N[C@@H](CC(N)=O)C(=O)N[C@H](C(=O)NCC(=O)N[C@@H](CO)C(=O)N[C@@H](CCC(=O)O)C(=O)N[C@H](C(=O)N[C@@H](Cc1ccc(O)cc1)C(N)=O)[C@@H](C)O)C(C)C)[C@@H](C)O` [Example 27], the “ThT pH 4.0 recovery (%)” value rises from 0% to 3%.

Going from `CC[C@H](C)[C@H](NC(=O)[C@H](C)NC(=O)CNC(=O)[C@H](Cc1ccccc1)NC(=O)[C@H](CC(N)=O)NC(=O)[C@@H]1CCCN1C(=O)[C@H](CO)NC(=O)[C@H](CO)NC(=O)[C@H](Cc1c[nH]cn1)NC(=O)[C@H](CCCNC(=N)N)NC(=O)[C@H](CC(C)C)NC(=O)[C@H](Cc1ccccc1)NC(=O)[C@H](CC(N)=O)NC(=O)[C@H](C)NC(=O)[C@H](CC(C)C)NC(=O)[C@H](CCCNC(=N)N)NC(=O)[C@H](CCC(N)=O)NC(=O)[C@@H](NC(=O)[C@H](C)NC(=O)[C@@H]1CSSC[C@H](NC(=O)[C@H](CCCCN)NC(=O)CC[C@H](NC(=O)CCCCCCCCCCCCCCCCCCC(=O)O)C(=O)O)C(=O)N[C@@H](CC(N)=O)C(=O)N[C@@H]([C@@H](C)O)C(=O)N[C@@H](C)C(=O)N[C@@H]([C@@H](C)O)C(=O)N1)[C@@H](C)O)C(=O)N1CCC[C@H]1C(=O)N[C@@H](CO)C(=O)N[C@@H](CO)C(=O)N[C@H](C(=O)N1CCC[C@H]1C(=O)N[C@H](C(=O)NCC(=O)N[C@@H](CO)C(=O)N[C@@H](CCC(=O)O)C(=O)N[C@H](C(=O)N[C@@H](Cc1ccc(O)cc1)C(N)=O)[C@@H](C)O)C(C)C)[C@@H](C)O` [Example 28] ({C20 diacid-γGlu}-KCNTATCATQRLANFLRHSSPNFGAIPSSTPVGSETY-NH2; disulfide 2-7 (inferred)) to `CC[C@H](C)[C@H](NC(=O)[C@H](C)NC(=O)CNC(=O)[C@H](Cc1ccccc1)NC(=O)[C@H](CC(N)=O)NC(=O)[C@@H]1CCCN1C(=O)[C@H](CO)NC(=O)[C@H](CO)NC(=O)[C@H](Cc1c[nH]cn1)NC(=O)[C@H](CCCNC(=N)N)NC(=O)[C@H](CC(C)C)NC(=O)[C@H](Cc1ccccc1)NC(=O)[C@H](CCC(=O)O)NC(=O)[C@H](C)NC(=O)[C@H](CC(C)C)NC(=O)[C@H](CCCNC(=N)N)NC(=O)[C@H](CCC(N)=O)NC(=O)[C@@H](NC(=O)[C@H](C)NC(=O)[C@@H]1CSSC[C@H](NC(=O)[C@H](CCCCN)NC(=O)CC[C@H](NC(=O)CCCCCCCCCCCCCCCCCCC(=O)O)C(=O)O)C(=O)N[C@@H](CC(N)=O)C(=O)N[C@@H]([C@@H](C)O)C(=O)N[C@@H](C)C(=O)N[C@@H]([C@@H](C)O)C(=O)N1)[C@@H](C)O)C(=O)N1CCC[C@H]1C(=O)N[C@@H](CO)C(=O)N[C@@H](CO)C(=O)N[C@H](C(=O)N1CCC[C@H]1C(=O)N[C@H](C(=O)NCC(=O)N[C@@H](CO)C(=O)N[C@@H](CC(N)=O)C(=O)N[C@H](C(=O)N[C@@H](Cc1ccc(O)cc1)C(N)=O)[C@@H](C)O)C(C)C)[C@@H](C)O` [Example 31] ({C20 diacid-γGlu}-KCNTATCATQRLAEFLRHSSPNFGAIPSSTPVGSNTY-NH2; disulfide 2-7 (inferred)), the “ThT pH 4.0 recovery (%)” value rises from 74% to 85%.

Going from `CC[C@H](C)[C@H](NC(=O)[C@H](C)NC(=O)CNC(=O)[C@H](Cc1ccccc1)NC(=O)[C@H](CC(N)=O)NC(=O)[C@@H]1CCCN1C(=O)[C@H](CO)NC(=O)[C@H](CO)NC(=O)[C@H](Cc1c[nH]cn1)NC(=O)[C@H](CCCNC(=N)N)NC(=O)[C@H](CC(C)C)NC(=O)[C@H](Cc1ccccc1)NC(=O)[C@H](CC(N)=O)NC(=O)[C@H](C)NC(=O)[C@H](CC(C)C)NC(=O)[C@H](CCCNC(=N)N)NC(=O)[C@H](CCC(N)=O)NC(=O)[C@@H](NC(=O)[C@H](C)NC(=O)[C@@H]1CSSC[C@H](NC(=O)[C@H](CCCCN)NC(=O)CC[C@H](NC(=O)CCCCCCCCCCCCCCCCCCC(=O)O)C(=O)O)C(=O)N[C@@H](CC(N)=O)C(=O)N[C@@H]([C@@H](C)O)C(=O)N[C@@H](C)C(=O)N[C@@H]([C@@H](C)O)C(=O)N1)[C@@H](C)O)C(=O)N1CCC[C@H]1C(=O)N[C@@H](CO)C(=O)N[C@@H](CO)C(=O)N[C@H](C(=O)N[C@@H](CC(N)=O)C(=O)N[C@H](C(=O)NCC(=O)N1CCC[C@H]1C(=O)N[C@@H](CCC(=O)O)C(=O)N[C@H](C(=O)N[C@@H](Cc1ccc(O)cc1)C(N)=O)[C@@H](C)O)C(C)C)[C@@H](C)O` [Example 29] ({C20 diacid-γGlu}-KCNTATCATQRLANFLRHSSPNFGAIPSSTNVGPETY-NH2; disulfide 2-7) to `CC[C@H](C)[C@H](NC(=O)[C@H](C)NC(=O)CNC(=O)[C@H](Cc1ccccc1)NC(=O)[C@H](CC(N)=O)NC(=O)[C@@H]1CCCN1C(=O)[C@H](CO)NC(=O)[C@H](CO)NC(=O)[C@H](Cc1c[nH]cn1)NC(=O)[C@H](CCCNC(=N)N)NC(=O)[C@H](CC(C)C)NC(=O)[C@H](Cc1ccccc1)NC(=O)[C@H](Cc1c[nH]cn1)NC(=O)[C@H](C)NC(=O)[C@H](CC(C)C)NC(=O)[C@H](CCCNC(=N)N)NC(=O)[C@H](CCC(N)=O)NC(=O)[C@@H](NC(=O)[C@H](C)NC(=O)[C@@H]1CSSC[C@H](NC(=O)[C@H](CCCCN)NC(=O)CC[C@H](NC(=O)CCCCCCCCCCCCCCCCCCC(=O)O)C(=O)O)C(=O)N[C@@H](CC(N)=O)C(=O)N[C@@H]([C@@H](C)O)C(=O)N[C@@H](C)C(=O)N[C@@H]([C@@H](C)O)C(=O)N1)[C@@H](C)O)C(=O)N1CCC[C@H]1C(=O)N[C@@H](CO)C(=O)N[C@@H](CO)C(=O)N[C@H](C(=O)N[C@@H](CC(N)=O)C(=O)N[C@H](C(=O)NCC(=O)N[C@@H](CO)C(=O)N[C@@H](CCC(=O)O)C(=O)N[C@H](C(=O)N[C@@H](Cc1ccc(O)cc1)C(N)=O)[C@@H](C)O)C(C)C)[C@@H](C)O` [Example 30] ({C20 diacid-γGlu}-KCNTATCATQRLAHFLRHSSPNFGAIPSSTNVGSETY-NH2; disulfide 2-7), the “ThT pH 4.0 recovery (%)” value rises from 19% to 59%.
